{"source": "PubChem BioAssay (NCATS)", "note": "Inconclusive results, whose numbers are uncertain, are shown with a selection of clear calls. Potencies of inconclusive entries are doubtful fits and often do not repeat. Activity calls are given as the source filed them. Calls come from the whole dose curve; as a rule, active = well fitted cell-killing curve with a large enough effect; inconclusive = small, poorly fitted or top-dose-only effect, or effect the other way; inactive = no such curve, though single readings can be large or run the other way. Potency is the fitted concentration of half-maximal effect; tags give direction and shape of the fitted curve."}
{"test": "Viability qHTS for spleen associated tyrosine kinase inhibitor (SYKi) naive MV4-11 cells (AID 1963823); note: nearly all actives have a fitted effect of over 40% in size", "settings": "MV4-11 AML viability, CellTiter-Glo luminescence, 72 h; series mostly up to 45 µM", "how_it_was_run": "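In this viability screen, compounds acted on SYK inhibitor naive MV4-11 cells for three days (72 hr, 37 C). Remaining viable cells were measured by CellTiter-Glo luminescence following a 10 min room-temperature development.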"}
{"smiles": "Cc1cccc(C)c1OCc1cc(C(=O)N2CCC(c3ccncc3)CC2)no1", "Potency": "inconclusive: 3.66 µM [cytotoxic, partial curve]"}
{"smiles": "COc1ccc(-c2ccc3c(N4CCOCC4)nc(N4CC(C)OC(C)C4)nc3n2)cc1CO", "note": "(stereo not given)", "Potency": "active: 0.291 µM"}
{"smiles": "Cc1ccc(-c2c(C(=O)CF)n(CCCO)c3ncnc(N)c23)cc1", "Potency": "active: 3.66 µM"}
{"smiles": "CCOc1cc(CC(=O)NC(CC(C)C)c2ccccc2N2CCCCC2)ccc1C(=O)O", "note": "(stereo not given)", "Potency": "inactive"}
{"smiles": "COc1cc2c(Nc3cc(F)c(Cl)c(Cl)c3)ncnc2cc1OCC1CCCN(C)CCC1", "Potency": "active: 1.16 µM"}
{"smiles": "CCn1c(=O)c2c(nc(/C=C/c3ccc(OC)c(OC)c3)n2C)n(CC)c1=O", "Potency": "inconclusive: 23.5 µM [cytotoxic, partial curve, poor fit]"}
{"smiles": "NC(=O)c1ccc(OCC2NC(=O)C3CCCN3C2=O)cc1", "note": "(stereo not given)", "Potency": "inactive"}
{"smiles": "CCC(CCO[C@@H]1O[C@H](CO[C@H]2OC[C@](O)(CO)[C@H]2O)[C@@H](O)[C@H](O)[C@H]1O)C(C)(C)O", "note": "(stereo not given in full)", "Potency": "inactive"}
{"smiles": "CN(C)c1ccnc2sc3c(=O)n(N4CCCCCC4)cnc3c12", "Potency": "inconclusive: 18.4 µM [cytotoxic, single point]"}
{"smiles": "C[C@H](NC(c1cccc2[nH]c(=O)c(=O)[nH]c12)P(=O)(O)O)c1ccc(Br)cc1", "note": "(stereo not given in full)", "Potency": "inactive"}
{"smiles": "O=C(/C=C\\n1cnc(-c2cc(C(F)(F)F)cc(C(F)(F)F)c2)n1)NNc1ccccn1", "Potency": "inconclusive: 2.35 µM [cytotoxic, full curve]"}
{"smiles": "CC1=CC(=O)CC(C)(C)[C@@]1(O)CC[C@@H](C)O[C@@H]1O[C@H](CO)[C@@H](O)[C@H](O)[C@H]1O", "Potency": "inconclusive: 0.718 µM [cytotoxic, full curve, poor fit]"}
{"smiles": "O=C(/C=C/c1ccccc1)OC[C@H]1O[C@@H](OC(=O)c2cc(O)c(O)c(O)c2)[C@H](O)[C@@H](O)[C@@H]1O", "Potency": "inactive"}
{"smiles": "CC(C)C(O)(CO)CCO[C@@H]1O[C@H](CO[C@H]2OC[C@](O)(CO)[C@H]2O)[C@@H](O)[C@H](O)[C@H]1O", "note": "(stereo not given in full)", "Potency": "inactive"}
{"smiles": "C=C1C(=O)O[C@@H]2[C@H]1CC[C@H](C)C(CCC(=O)O)C2(C)O", "note": "(stereo not given in full)", "Potency": "active: 5.8 µM"}
{"smiles": "O=C(O[C@H]1[C@@H]2C=CO[C@@H](O[C@@H]3O[C@H](CO)[C@@H](O)[C@H](O)[C@H]3O)[C@@H]2[C@@]2(CO)O[C@@H]12)c1ccc(O)cc1", "Potency": "inactive"}
{"smiles": "COc1ccc(S(=O)(=O)Nc2nnc(CC(C)C)s2)cc1", "Potency": "inactive"}
{"smiles": "COC(=O)N1CCC(n2ncc3c(N4CCOCC4)nc(-c4ccc(NC(=O)Nc5ccc(CO)cc5)cc4)nc32)CC1", "Potency": "inconclusive: 0.0184 µM [cytotoxic, full curve]"}
{"smiles": "C=CCCN1CCC2(CC1)CN(C(=O)c1c(F)cccc1F)c1ccc(Cl)cc12", "Potency": "inconclusive: 10.3 µM [cytotoxic, partial curve]"}
{"smiles": "Cc1cc(CN)cc(C)c1NC(=O)c1ccc(-c2cc(Cl)ccc2Cl)o1", "Potency": "active: 6.51 µM"}
{"smiles": "C=C1[C@H](OC(C)=O)[C@H]2[C@@H](OC(C)=O)[C@](C)(OC(C)=O)C[C@]2(OC(C)=O)C(=O)[C@H](C)/C=C/C(C)(C)C(=O)[C@H](OC(=O)C(C)C)[C@H]1OC(C)=O", "Potency": "inactive"}
{"smiles": "NC(=O)CCCSc1nc(N)nc(-c2c(Cl)cc3c4c(cccc24)COC3)n1", "Potency": "active: 0.0651 µM"}
{"smiles": "O=C(CCc1nnc2n(Cc3ccc(Cl)cc3)c(=O)c3ccccc3n12)NCCC1=CCCCC1", "Potency": "inactive"}
{"smiles": "COC1CC(O[C@H]2CC[C@@]3(C)C(=CC[C@]4(O)C3[C@H](O)[C@@H](O)[C@]3(C)[C@@H]([C@H](C)O)CC[C@@]34O)C2)OC(C)C1OC1CC(OC)C(OC2CC(OC)C(OC3OC(C)C(OC4OC(CO)C(O)C(O)C4O)C(OC)C3O)C(C)O2)C(C)O1", "note": "(stereo not given in full)", "Potency": "inconclusive: 0.31 µM [cytotoxic, full curve, poor fit]"}
{"smiles": "C=C1[C@H](OC(C)=O)[C@H]2[C@@H](OC(C)=O)[C@](C)(OC(C)=O)C[C@]2(OC(C)=O)C(=O)[C@H](C)/C=C/C(C)(C)C(=O)[C@H](OC(=O)C(C)CC)[C@H]1OC(C)=O", "note": "(stereo not given in full)", "Potency": "inconclusive: 1.93 µM [rising, single point]"}
{"smiles": "COc1ccc(Cl)c(Nc2ncnc3cc(OCC4CCN(C)CC4)c(OC)cc23)c1", "Potency": "active: 5.25 µM"}
{"smiles": "COc1cccc(NC[C@@H](O)Cn2c3ccc(Br)cc3c3cc(Br)ccc32)c1", "Potency": "active: 18.4 µM"}
{"smiles": "CCN(CC)C(=O)/C(C#N)=C/c1cc(O)c(O)c([N+](=O)[O-])c1", "Potency": "inactive"}
{"smiles": "Nc1c2ccccc2nc2ccccc12", "Potency": "active: 2.99 µM"}
{"smiles": "CCC(=O)N1CCc2cc(OC)c(O)cc2C1", "Potency": "inactive"}
{"smiles": "CS(=O)(=O)c1ccccc1N1CCN(c2nc3c(c(=O)[nH]2)CSCC3)CC1", "Potency": "inactive"}
{"smiles": "CC(C)n1cnc2c(NCc3cccc(C(F)(F)F)c3)ncnc21", "Potency": "inconclusive: 14.6 µM [cytotoxic, partial curve]"}
{"smiles": "Cc1nc2sc(C(=O)NCc3ccncc3)c(N)c2c(C)c1Cl", "Potency": "inconclusive: 0.0164 µM [rising, full curve, poor fit]"}
{"smiles": "COc1cc(C2OCC3(O)C(c4ccc(O[C@@H]5O[C@H](CO)[C@@H](O)[C@H](O)[C@H]5O)c(OC)c4)OCC23O)ccc1O", "note": "(stereo not given in full)", "Potency": "inactive"}
{"smiles": "C[C@@H]1O[C@@H](O[C@H]2[C@@H]3C=CO[C@@H](O[C@@H]4O[C@H](CO)[C@@H](O)[C@H](O)[C@H]4O)[C@@H]3[C@@]3(CO)O[C@@H]23)[C@H](O)[C@H](O)[C@H]1OC(=O)/C=C/c1ccc(O)cc1", "Potency": "inconclusive: 0.0024 µM [rising, full curve]"}
{"smiles": "COC(=O)[C@]1(C)CCC[C@@]2(C)[C@@H]3CC[C@@H]4C[C@@]3(CC[C@@H]21)C[C@H]4C(=O)O", "Potency": "inactive"}
{"smiles": "NC[C@H]1O[C@H](O[C@H]2[C@H](O)[C@@H](O[C@H]3O[C@H](CO)[C@@H](O)[C@H](N)[C@H]3O)[C@H](N)C[C@@H]2N)[C@H](N)C[C@@H]1O", "Potency": "inconclusive: 2.95 µM [cytotoxic, single point]"}
{"smiles": "CCCCCCCCCCCCCCCCO", "Potency": "inactive"}
{"smiles": "CCOCc1cc(OC)c(-c2ccc(C[C@H](NC(=O)c3c(F)cccc3F)C(=O)O)cc2)c(OC)c1", "Potency": "inactive"}
{"smiles": "C=CC(C)(C)C12CC3C(=O)NC(Cc4cnc[nH]4)C(=O)N3C1Nc1ccccc12", "note": "(stereo not given)", "Potency": "inconclusive: 5.7 µM [cytotoxic, partial curve, poor fit]"}
